The whole screen tested about 52,000 compounds, of which about 4,300 (8.3%) were called active. Rule as the data show it: active = survival mostly below about 52% (no sharp cut-off); inactive = mostly above about 56%. Some of the results follow.
system: DeltatarO mutant; assay: growth inhibition of S. aureus wild type versus tarO mutant, primary screen, teichoic acid synthesis inhibitors, RN4220, OD600 (AID 463173); conditions: OD600, 18 h, hits give low values, screened at 18.75 µg/mL (by protocol)

Row | Compound | survival
1 | O=C(Nc1ccccc1OCc1cc(=O)n2ccccc2n1)c1ccccc1F | inactive: 83%
2 | COc1ccc(/C=C/c2nc3ccccc3c(=O)n2-c2cccc(C(F)(F)F)c2)cc1 | inactive: 91%
3 | Cc1[nH]c(=O)[nH]c(=O)c1S(=O)(=O)N1CCN(c2cccc(Cl)c2)CC1 | inactive: 65%
4 | Cc1ccc(CN(C(=O)COc2ccc(Cl)cc2Cl)C2CCS(=O)(=O)C2)o1 (centres undefined) | inactive: 87%
5 | C=CCN(CC=C)C(=O)CCN1C(=O)c2ccccc2C1=O | inactive: 89%
6 | O=S1(=O)CCC(N=Cc2ccc(-c3ccc(Br)cc3)o2)C1 (centres undefined) | inactive: 98%
7 | CCN(CC)c1ccc(NC(=O)c2cc3c(=O)n4cccc(C)c4nc3n2C)c(C)c1 | inactive: 61%
8 | Cc1cc(S(=O)(=O)NCC(c2ccc(N(C)C)cc2)N2CCOCC2)ccc1F (centres undefined) | inactive: 83%
9 | O=C(CSC1=Nc2ccccc2N=C(c2ccc(F)cc2)C1)NCc1ccc(Cl)cc1 | inactive: 72%
10 | CC(=O)c1ccc(NC(=O)c2nc3ccccc3n(C)c2=O)cc1 | inactive: 80%
11 | CCn1nc(C)c2c(-c3ccccc3)cc(=O)n(C(C)C(=O)NCc3ccc(C)cc3)c21 (centres undefined) | inactive: 122%
12 | CCCCCNC(=O)CCn1c(=O)[nH]c2ccccc2c1=O | inactive: 125%
13 | Cc1c(-c2ccc(Cl)cc2)c(=O)oc2c(CN3CCCC3)c(O)ccc12 | inactive: 77%
14 | COc1ccc(N2CC(NC(=O)c3ccc(OC(C)C)cc3)CC2=O)cc1 (centres undefined) | active: 0%
15 | Nc1ccc2[nH]c(=O)nc(-c3ccccc3)c2c1 | inactive: 101%
16 | COc1ccc(-c2nc3sc(CCNS(=O)(=O)c4ccc(F)c(C)c4)c(C)n3n2)cc1 | inactive: 81%
17 | COc1ccccc1CNC(=O)CN1C(=O)CCn2nc(-c3ccccc3)cc21 | inactive: 57%
18 | Cc1ccc(OCC(=O)Nc2ccc3nc(Nc4cccc(Cl)c4)cc(C)c3c2)cc1 | inactive: 132%
19 | Clc1ccc(CNc2cc(-c3ccccc3)nc3nncn23)cc1 | inactive: 50%
20 | CCCNC(=O)Cn1nc(-c2ccc(C)c(C)c2)c2cnc3ccc(F)cc3c21 | inactive: 69%
21 | COc1ccc(S(=O)(=O)Nc2cccc(-c3ccc(N4CCCC4)nn3)c2)cc1OC | inactive: 85%
22 | O=C(Nc1cccc(C(F)(F)F)c1)Nc1nnc(N2CCCCC2)s1 | inactive: 82%
23 | N#Cc1c(Nc2cccc(F)c2)sc(C(=O)c2ccc(Cl)cc2)c1N | inactive: 79%

Row | Compound | survival
24 | CCN(c1ccccc1)S(=O)(=O)c1ccc2[nH]cc(C(=O)NCc3ccc(C)cc3)c(=O)c2c1 | inactive: 117%
25 | CCOc1ccc(CCNC(=O)C2CCC(CNS(=O)(=O)c3ccc(Cl)cc3)CC2)cc1OCC (centres undefined) | inactive: 80%
26 | COc1cccc(-n2cc(C(=O)Nc3cc(C)c(Cl)cc3OC)c3ccccc3c2=O)c1 | inactive: 56%
27 | Cc1ccccc1C(=O)NN1C(=O)c2ccccc2C1=O | inactive: 98%
28 | CCOc1ccc(CNC(=O)C2CCN(c3nn4c(=O)cc(C)nc4s3)CC2)cc1 | inactive: 85%
29 | CCC1(CO)COC(c2ccco2)OC1 (centres undefined) | inactive: 65%
30 | COc1ccc(N(C(=O)COc2ccccc2OC)S(=O)(=O)c2ccc(Cl)cc2)cc1 | inactive: 71%
31 | COc1nc(OC)nc(N2CCC(C(=O)NC3CCCCCC3)CC2)n1 | inactive: 108%
32 | CCc1ccccc1NC(=O)Nc1cc(C(=O)NCc2ccc(OC)cc2)ccc1N1CCCC1 | inactive: 94%
33 | Cc1noc(C)c1S(=O)(=O)N1CCCC(C(=O)Nc2ccc(C(C)C)cc2)C1 (centres undefined) | inactive: 70%
34 | O=C(c1ccccc1)n1nc(-c2ccco2)nc1NCc1ccccc1Cl | inactive: 103%
35 | O=C(CS(=O)(=O)c1nc(-c2ccc(Cl)cc2)cn1-c1ccccc1)Nc1ccc(F)cc1F | active: 50%
36 | CCn1c(/N=C/c2ccc(OC)cc2O)nc2ccccc21 | inactive: 108%
37 | CCc1ccc(C(=O)c2cn(CC(=O)Nc3ccc4c(c3)OCCO4)c3ccc(C)cc3c2=O)cc1 | active: 57%
38 | CCOC(=O)c1c(C)[nH]c(C)c1S(=O)(=O)NCC(=O)N1CCN(c2cc(Cl)ccc2C)CC1 | inactive: 119%
39 | O=C(CCSCc1ccccc1Cl)N1CCN(c2ccc(F)cc2)CC1 | inactive: 66%
40 | CC(Oc1ccccc1)C(=O)N1CCN(Cc2cc(=O)n3nc(-c4ccccc4Cl)sc3n2)CC1 (centres undefined) | inactive: 85%
41 | COCc1cc(C)nc2sc3c(c12)NC(c1ccccc1C(=O)O)N(c1ccc(OC)cc1)C3=O (centres undefined) | inactive: 89%
42 | CC(=O)c1ccc(NC(=O)COc2ccccc2-c2nc(-c3ccccc3)no2)cc1 | inactive: 48%
43 | Cc1ccc(C)c(NC(=O)c2nnn(CC(=O)Nc3cccc(C)c3C)c2N)c1 | inactive: 98%
44 | O=c1c2c3c(sc2n(Cc2cc(=O)n4ccccc4n2)c(=O)n1-c1ccccc1)CCC3 | inactive: 87%
45 | O=c1cc(CN2CCN(S(=O)(=O)c3ccccc3)CC2)nc2sc(-c3ccccc3Cl)nn12 | inactive: 72%
46 | COc1ccc(NC(=O)CCCc2nnc3n(CCC(C)C)c(=O)c4sccc4n23)cc1Cl | inactive: 80%

Row | Compound | survival
47 | CCOc1ccc(CNC(=O)C2CCN(C(=O)c3sccc3-n3cccc3)CC2)cc1 | inactive: 81%
48 | Cc1ccc(-n2c(SCCC(C)C)nc3sc4c(c3c2=O)CC(C)(C)OC4)cc1 | inactive: 49%
49 | COc1ccccc1CNC(=O)CN1C(=O)c2cccnc2Oc2ccccc21 | inactive: 89%
50 | CCC(=O)N(Cc1cc2ccc(C)cc2n2nnnc12)C1CCCCC1 | inactive: 75%
51 | O=C(CSc1nc(-c2ccccc2)nc2c1CCCC2)c1ccc(Cl)cc1 | inactive: 76%
52 | O=C(O)CCc1ccc(-c2cccs2)n1CC(=O)Nc1ccccc1C(F)(F)F | inactive: 109%
53 | COc1ccc(Cn2ccc3nc(C)c(C(=O)N4CCN(c5cc(C)ccc5C)CC4)cc3c2=O)cc1 | inactive: 94%
54 | CCOC(=O)c1c(NC(=O)CSc2nccn2C)sc2c1CCCC2 | inactive: 78%
55 | CCc1cccc(C)c1NC(=O)C(CC)n1ncn2c(cc3cc(C)ccc32)c1=O (centres undefined) | inactive: 86%
56 | Cc1ccc(C)c(NC(=O)Cn2c(=O)n(Cc3ccc4c(c3)OCO4)c(=O)c3ccc(C(=O)NC4CCCCC4)cc32)c1 | inactive: 88%
57 | CCOc1ccc(CNC(=O)c2cnc3sc(N4CCCCCC4)nn3c2=O)cc1OC | inactive: 83%
58 | Cc1ccc(S(=O)(=O)c2nc(S(=O)(=O)c3ccc(C)cc3)c(NC(C)C)s2)cc1 | inactive: 74%
59 | CC1CCCCN1C(=O)C1CCCN(S(=O)(=O)c2ccccc2)C1 (centres undefined) | inactive: 71%
60 | CCC(=O)Nc1cc(C(F)(F)F)ccc1N1CCCC1 | inactive: 76%
61 | CCOc1ccc(CNC(=O)CN2C(=O)C3CCCCN3c3ccc(C(=O)N4CCCC4)cc32)cc1 (centres undefined) | inactive: 113%
62 | CC(C)Oc1ccc(C(=O)N2CC(=O)Nc3ccc(F)cc3C2c2ccc(F)cc2)cc1 (centres undefined) | inactive: 53%
63 | CN(C)c1cccc(C(=O)N2CCC(c3ccncc3)CC2)c1 | inactive: 88%
64 | COc1cc(CNc2ccc3[nH]c(=O)[nH]c3c2)cc(Br)c1OCc1ccc(F)cc1 | inactive: 99%
65 | COc1ccccc1CNC(=O)c1cc2cc(C)ccc2n1C | inactive: 80%
66 | O=C(Cn1c(C(=O)OCCO)cc2ccccc21)c1ccccc1 | inactive: 99%
67 | O=C(COc1ccccc1)NCC1COc2ccccc2O1 (centres undefined) | inactive: 91%
68 | COCCNc1ncnc2onc(-c3ccc(F)cc3)c12 | inactive: 94%
69 | COc1ccc(-c2cc(C(F)(F)F)nc(SCCC(=O)Nc3cccc(O)c3)n2)cc1 | inactive: 66%

Row | Compound | survival
70 | Cc1cc(=O)n(CC(=O)Nc2cccc([N+](=O)[O-])c2)c(-n2nc(C)cc2C)n1 | inactive: 95%
71 | CC(NC(=O)c1ccc2nc(Cc3ccccc3)oc2c1)c1ccccc1 (centres undefined) | inactive: 75%
72 | COC(=O)c1c(NC(=O)c2cc3nc(-c4ccc(Br)cc4)cc(C(F)(F)F)n3n2)sc2c1CCCC2 | inactive: 70%
73 | COc1ccc(OC)c(NC(=O)N2CCC(N3CCN(Cc4ccc(F)cc4)C(=O)C3=O)CC2)c1 | inactive: 90%
74 | CCc1ccc(Nc2cc(C(=O)NCCCN(C)c3ccccc3)c3ccccc3n2)cc1 | inactive: 75%
75 | CCOc1ccc(CCNC(=O)c2sc3ncccc3c2-n2c(C)ccc2C)cc1 | inactive: 106%
76 | CCc1noc(-c2ccc(N(C)Cc3ccc(OC)cc3)c([N+](=O)[O-])c2)n1 | inactive: 75%
77 | CCNC(=O)C1CCN(S(=O)(=O)c2ccc(C)cc2)CC1 | inactive: 99%
78 | Cc1c(Cl)cccc1NC(=O)C(=O)NCC(c1cccnc1)N1CCN(c2ccccc2)CC1 (centres undefined) | inactive: 53%
79 | O=C(c1ccco1)c1cn(CC(=O)N2CCc3ccccc3C2)c2ccccc12 | inactive: 98%
80 | Cc1ccc2c(c1)CC(C)N2S(=O)(=O)c1nnc(NC(=O)C(C)C)s1 (centres undefined) | inactive: 58%
81 | CCCN(C(=O)c1sc2nc3n(c(=O)c2c1C)CCCC3)c1ccccc1C | inactive: 70%
82 | CCCNC(=O)C1CCC(Cn2c(=O)c3sccc3n(CC(=O)Nc3ccccc3C)c2=O)CC1 (centres undefined) | inactive: 93%
83 | Cc1cccc(NC(=O)C2CCN(S(=O)(=O)c3ccc4c(c3)CCCC(=O)N4)CC2)c1 | inactive: 85%
84 | Fc1ccc(Cc2cn3cc(-c4ccc(F)cc4)nc3s2)cc1 | inactive: 61%
85 | COc1cc(NC(=O)c2cc3cc4cc(OC)ccc4nc3o2)cc(OC)c1 | inactive: 83%
86 | Cc1ccc2[nH]c(=O)c(C(c3nnnn3C3CCCC3)N(C)C3CCCCC3)cc2c1 (centres undefined) | inactive: 94%
87 | CCOc1cc(C2NC(=O)c3c(sc4c3CCN(C)C4)N2)ccc1OC(=O)c1ccc(F)cc1 (centres undefined) | inactive: 56%
88 | CC1CCN(S(=O)(=O)N(C)C)CC1 | inactive: 86%
89 | Cc1nc2nc(C)c(CCC(=O)NCc3cccc(Cl)c3)c(C)n2n1 | inactive: 84%

From PubChem BioAssay AID463173 (ICCB-Longwood Screening Facility, Harvard Medical School, 2010)
